Consider 153 variants from a collection of fitness landscapes (doi:10.1126/science.1257360).

B1: PhoQ; a variant is named by its letters at X, in order, P23837 (parent)
chain: MKKLLRLFFPLSLRVRFLLATAAVVLVLSLAYGMVALIGYSVSFDKTTFRLLRGESNLFYTLAKWENNKLHVELPENIDKQSPTMTLIYDENGQLLWAQRDVPWLMKMIQPDWLKSNGFHEIEADVNDTSLLLSGDHSIQQQLQEVREDDDDAEMTHSVAVNVYPATSRMPKLTIVVVDTIPVELKSSYMVWSWFIYVLSANLLLVIPLLWVAAWWSLRPIEALAKEVRELEEHNRELLNPATTRELTSLVRNLNRLLKSERERYDKYRTTLTDLTHSLKTPLXXLQXXLRSLRSEKMSVSDAEPVMLEQISRISQQIGYYLHRASMRGGTLLSRELHPVAPLLDNLTSALNKVYQRKGVNISLDISPEISFVGEQNDFVEVMGNVLDNACKYCLEFVEISARQTDEHLYIVVEDDGPGIPLSKREVIFDRGQRVDTLRPGQGVGLAVAREITEQYEGKIVAGESMLGGARMEVIFGRQHSAPKDE

This is one part of the list. Some results are limits rather than exact numbers.

Variants of B1 are the subject of the assay. The experiment in a line: enrichment ratio after two sorts for PhoP signalling (ratio (wild type AVST 3.29)); higher = more functional. The conditions noted are these: with PhoP (E. coli).
FWLT: the enrichment ratio was no more than 0.25.

As to VISK, the enrichment ratio was no more than 0.25.

With NKKK, the enrichment ratio was no more than 0.25.

As for EYVP, the enrichment ratio was no more than 0.25.

Turning to VDWQ, the enrichment ratio is no more than 0.25.

As to TFHC, the enrichment ratio was no more than 0.25.

For FPHY, the enrichment ratio is no more than 0.25.

As to LQRK, the enrichment ratio was no more than 0.25.

In the case of CCFF, the enrichment ratio is no more than 0.25.

Regarding IFSY, the enrichment ratio was no more than 0.25.

As for IGPD, the enrichment ratio is no more than 0.25.

As to DCNS, the enrichment ratio is no more than 0.25.

As to SWYV, the enrichment ratio was no more than 0.25.

Take SGIR: the enrichment ratio is no more than 0.25.

As to GLCY, the enrichment ratio was 4.82.

For the variant NKTR, the enrichment ratio was no more than 0.25.

Regarding RWVY, the enrichment ratio was no more than 0.25.

As for EMVS, the enrichment ratio was no more than 0.25.

In the case of TLAP, the enrichment ratio was 0.342.

In the case of ICYN, the enrichment ratio was no more than 0.25.

VFAR: the enrichment ratio is no more than 0.25.

As for ESAA, the enrichment ratio was no more than 0.25.

In the case of MITL, the enrichment ratio came out at 2.48.

On to FLAY, for which the enrichment ratio is no more than 0.25.

Regarding WELN, the enrichment ratio is no more than 0.25.

Regarding RGHG, the enrichment ratio is no more than 0.25.

On to PVAL, for which the enrichment ratio is no more than 0.25.

Take LPGW: the enrichment ratio is no more than 0.25.

Regarding LGFK, the enrichment ratio is no more than 0.25.

Consider ILID, for which the enrichment ratio is no more than 0.25.

As to LINF, the enrichment ratio came to 0.298.

For the variant DPHC, the enrichment ratio was no more than 0.25.

Take NNKI: the enrichment ratio is no more than 0.25.

With GWMV, the enrichment ratio was no more than 0.25.

Turning to MERS, the enrichment ratio was no more than 0.25.

As for YAKQ, the enrichment ratio was no more than 0.25.

In the case of MMVV, the enrichment ratio was no more than 0.25.

With GRPS, the enrichment ratio was no more than 0.25.

For the variant IQDT, the enrichment ratio was no more than 0.25.

Take FCAC: the enrichment ratio was determined as 1.76.

Take HVLY: the enrichment ratio is no more than 0.25.

On to IKEW, for which the enrichment ratio was no more than 0.25.

For the variant NGHN, the enrichment ratio was no more than 0.25.

On to SIQI, for which the enrichment ratio came to 10.2.

As to HSYV, the enrichment ratio was no more than 0.25.

For the variant LLIY, the enrichment ratio is no more than 0.25.

IMIE: the enrichment ratio was no more than 0.25.

Take STFA: the enrichment ratio is no more than 0.25.

For the variant LVIF, the enrichment ratio is no more than 0.25.

On to TVLC, for which the enrichment ratio is 6.08.

For the variant ITLD, the enrichment ratio was no more than 0.25.

Consider DTFE, for which the enrichment ratio is no more than 0.25.

For the variant FTNE, the enrichment ratio was no more than 0.25.

Turning to VCHC, the enrichment ratio was no more than 0.25.

Regarding ERYY, the enrichment ratio was no more than 0.25.

In the case of MHHF, the enrichment ratio is no more than 0.25.

On to TAEG, for which the enrichment ratio came out at 1.55.

In the case of RYVM, the enrichment ratio is no more than 0.25.

On to AQHW, for which the enrichment ratio was no more than 0.25.

Consider TRSC, for which the enrichment ratio amounted to 0.581.

Turning to LHAS, the enrichment ratio was no more than 0.25.

For LFVA, the enrichment ratio was no more than 0.25.

Consider VDQK, for which the enrichment ratio is no more than 0.25.

As to LLYR, the enrichment ratio is no more than 0.25.

As for IMDD, the enrichment ratio was no more than 0.25.

On to MHQS, for which the enrichment ratio was no more than 0.25.

For the variant DAHR, the enrichment ratio was no more than 0.25.

Take VHMW: the enrichment ratio was no more than 0.25.

For the variant QEVF, the enrichment ratio was no more than 0.25.

With KRFC, the enrichment ratio is no more than 0.25.

HPDG: the enrichment ratio was no more than 0.25.

On to KCDP, for which the enrichment ratio is no more than 0.25.

Consider TFYA, for which the enrichment ratio was no more than 0.25.

With MGKV, the enrichment ratio is no more than 0.25.

With REPH, the enrichment ratio is no more than 0.25.

For the variant WAQW, the enrichment ratio was no more than 0.25.

For the variant GLHL, the enrichment ratio is no more than 0.25.

On to IKRF, for which the enrichment ratio was no more than 0.25.

Turning to YRFW, the enrichment ratio was no more than 0.25.

In the case of QHWL, the enrichment ratio was no more than 0.25.

For the variant MSDM, the enrichment ratio is 0.744.

With KCSQ, the enrichment ratio is no more than 0.25.

On to QFPY, for which the enrichment ratio is no more than 0.25.

For the variant VSYY, the enrichment ratio was no more than 0.25.

Turning to HITQ, the enrichment ratio is no more than 0.25.

As to FVSV, the enrichment ratio is no more than 0.25.

For TPHV, the enrichment ratio was no more than 0.25.

Take WNDD: the enrichment ratio is no more than 0.25.

As to KFGN, the enrichment ratio was no more than 0.25.

As for YCRG, the enrichment ratio is no more than 0.25.

As to GGVQ, the enrichment ratio was no more than 0.25.

Turning to YEYS, the enrichment ratio is no more than 0.25.

Regarding EFYL, the enrichment ratio was no more than 0.25.

As to MSST, the enrichment ratio turned out to be 0.476.

For the variant SYDQ, the enrichment ratio was no more than 0.25.

As for YWFC, the enrichment ratio is no more than 0.25.

On to FGRE, for which the enrichment ratio is no more than 0.25.

EGAQ: the enrichment ratio is no more than 0.25.

IMAD: the enrichment ratio was no more than 0.25.

Consider WRWW, for which the enrichment ratio is no more than 0.25.

As to DDTQ, the enrichment ratio was no more than 0.25.

QEIH: the enrichment ratio was no more than 0.25.

With FQRY, the enrichment ratio is no more than 0.25.

AAKP: the enrichment ratio is no more than 0.25.

VAHL: the enrichment ratio was 1.14.

Regarding SPDK, the enrichment ratio was no more than 0.25.

Turning to LHCT, the enrichment ratio was no more than 0.25.

Regarding IGYK, the enrichment ratio was no more than 0.25.

In the case of VHEI, the enrichment ratio was no more than 0.25.

Consider IWRY, for which the enrichment ratio is no more than 0.25.

On to GKFG, for which the enrichment ratio is no more than 0.25.

Turning to MFKN, the enrichment ratio was no more than 0.25.

Consider HQGP, for which the enrichment ratio is no more than 0.25.

Turning to MECW, the enrichment ratio is no more than 0.25.

As to LKGG, the enrichment ratio is no more than 0.25.

Consider VHTP, for which the enrichment ratio is no more than 0.25.

Regarding LMQQ, the enrichment ratio was no more than 0.25.

PQNY: the enrichment ratio was no more than 0.25.

With MLPY, the enrichment ratio is no more than 0.25.

Turning to VFAD, the enrichment ratio is no more than 0.25.

Turning to FSDI, the enrichment ratio was no more than 0.25.

On to CYSM, for which the enrichment ratio was no more than 0.25.

Take RYTD: the enrichment ratio is no more than 0.25.

In the case of PEMN, the enrichment ratio is no more than 0.25.

For the variant ANVD, the enrichment ratio was no more than 0.25.

Regarding KYPK, the enrichment ratio was no more than 0.25.

With FATL, the enrichment ratio was determined as 0.78.

Turning to IEDL, the enrichment ratio is no more than 0.25.

With FVNP, the enrichment ratio is no more than 0.25.

Take FKWD: the enrichment ratio was no more than 0.25.

Regarding DCYQ, the enrichment ratio was no more than 0.25.

As to QGTD, the enrichment ratio is no more than 0.25.

For the variant MMTW, the enrichment ratio was no more than 0.25.

LQQP: the enrichment ratio was no more than 0.25.

For GVPH, the enrichment ratio was no more than 0.25.

For the variant MPFP, the enrichment ratio is no more than 0.25.

On to FINF, for which the enrichment ratio worked out at 2.48.

With DTIH, the enrichment ratio is no more than 0.25.

For PWHA, the enrichment ratio is no more than 0.25.

With QINY, the enrichment ratio is no more than 0.25.

Consider HQAE, for which the enrichment ratio was no more than 0.25.

With HMHL, the enrichment ratio was no more than 0.25.

With MVTS, the enrichment ratio was no more than 0.25.

With NKWV, the enrichment ratio is no more than 0.25.

Consider TVVI, for which the enrichment ratio was no more than 0.25.

For the variant IQHP, the enrichment ratio is no more than 0.25.

Consider WTNH, for which the enrichment ratio was no more than 0.25.

Turning to FEDQ, the enrichment ratio is no more than 0.25.

On to TSEL, for which the enrichment ratio turned out to be 9.95.

WSHD: the enrichment ratio is no more than 0.25.

Consider HWQS, for which the enrichment ratio was no more than 0.25.

With TFRY, the enrichment ratio is no more than 0.25.

For HWTE, the enrichment ratio was no more than 0.25.
